The record followed here is US20240384006A1 (Amgen, published 2024).

Assay [1] deals with T1, human CD22 (human, UniProt P20273 20-847).
T1 sequence (looked up): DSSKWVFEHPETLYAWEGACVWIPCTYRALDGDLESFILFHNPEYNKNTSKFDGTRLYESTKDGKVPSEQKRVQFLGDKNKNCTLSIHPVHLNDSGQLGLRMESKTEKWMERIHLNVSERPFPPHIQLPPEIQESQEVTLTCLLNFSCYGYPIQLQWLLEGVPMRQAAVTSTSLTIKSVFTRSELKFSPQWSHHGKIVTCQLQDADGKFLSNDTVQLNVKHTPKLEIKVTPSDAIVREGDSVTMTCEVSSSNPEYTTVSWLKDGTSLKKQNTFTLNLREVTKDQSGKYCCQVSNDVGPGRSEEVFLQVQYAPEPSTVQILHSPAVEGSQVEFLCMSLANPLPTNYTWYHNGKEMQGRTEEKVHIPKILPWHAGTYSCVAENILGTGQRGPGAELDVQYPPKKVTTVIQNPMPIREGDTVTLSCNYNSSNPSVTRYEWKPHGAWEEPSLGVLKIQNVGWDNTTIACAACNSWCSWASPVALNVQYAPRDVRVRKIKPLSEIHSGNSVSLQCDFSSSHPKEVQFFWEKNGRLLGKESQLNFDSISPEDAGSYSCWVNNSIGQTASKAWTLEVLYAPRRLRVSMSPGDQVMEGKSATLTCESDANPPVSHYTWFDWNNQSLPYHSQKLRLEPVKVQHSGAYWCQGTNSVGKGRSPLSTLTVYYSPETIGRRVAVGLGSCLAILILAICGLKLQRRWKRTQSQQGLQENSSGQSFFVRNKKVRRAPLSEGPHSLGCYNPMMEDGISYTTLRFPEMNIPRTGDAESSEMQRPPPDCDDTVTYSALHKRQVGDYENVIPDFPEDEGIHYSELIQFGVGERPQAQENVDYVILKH
In words: cell-based or functional assay.

In assay [2] the target is T2, human CD20 (human, UniProt P11836 1-297).
T2 sequence (looked up): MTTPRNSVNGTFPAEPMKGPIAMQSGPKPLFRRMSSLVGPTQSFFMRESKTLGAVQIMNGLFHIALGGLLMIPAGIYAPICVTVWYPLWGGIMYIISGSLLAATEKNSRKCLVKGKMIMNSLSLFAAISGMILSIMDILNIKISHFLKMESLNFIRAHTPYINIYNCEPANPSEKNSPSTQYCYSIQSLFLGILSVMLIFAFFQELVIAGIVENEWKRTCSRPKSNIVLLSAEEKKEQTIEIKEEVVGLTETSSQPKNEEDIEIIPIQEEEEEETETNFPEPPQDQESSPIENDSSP
In words: cell-based or functional assay.

For assay [3], the target named is T1, human CD22. In words: flow cytometry on CHO cells expressing human CD22, one site-specific binding fit, mean of three. Here is the method: (§1) Cell-based affinity of CD20 CD22 dual targeting antigen-binding molecules was determined by nonlinear regression (one site—specific binding) analysis. CHO cells expressing human CD20, cyno CD20, human CD22 or cyno CD22 were incubated with decreasing concentrations of CD20 CD22 dual targeting antigen-binding molecules (up to 800 nM, step 1:2 or 1:3, 11 steps) for 16 h at 4° C. Bound CD20 CD22 dual targeting antigen-binding molecules were detected with Alexa Fluor 488-conjugated AffiniPure Fab Fragment Goat Anti-Human IgG (H+L). Fixed cells were stained with DRAQ5, Far-Red Fluorescent Live-Cell Permeant DNA Dye and signals were detected by fluorescence cytometry. Respective equilibrium dissociation constant (Kd) values were calculated with the one site specific binding evaluation tool of the GraphPad Prism software. Mean Kd values and affinity gaps were calculated with Microsoft Excel.
(§2) Cell-based affinities of CD20 CD22 dual targeting antigen-binding molecules on target-transfected CHO cells were determined by nonlinear regression (one site—specific binding) analysis. Mean Kd values were calculated from three independent measurements. Affinity gaps were determined by dividing the cyno Kd by the human Kd.

The target of assay [4] is T3, cyno CD22 (cyno).
T3 construct: whole, on cells; also called cy CD22
The experiment in a line: flow cytometry on CHO cells expressing cyno CD22, one site-specific binding fit, mean of three. How it is done: as §1, §2

Assay [5] deals with T4, cyno CD20 (cyno, UniProt M4ZHZ6 1-297).
T4 construct: whole, on cells; also called cy CD20
T4 sequence: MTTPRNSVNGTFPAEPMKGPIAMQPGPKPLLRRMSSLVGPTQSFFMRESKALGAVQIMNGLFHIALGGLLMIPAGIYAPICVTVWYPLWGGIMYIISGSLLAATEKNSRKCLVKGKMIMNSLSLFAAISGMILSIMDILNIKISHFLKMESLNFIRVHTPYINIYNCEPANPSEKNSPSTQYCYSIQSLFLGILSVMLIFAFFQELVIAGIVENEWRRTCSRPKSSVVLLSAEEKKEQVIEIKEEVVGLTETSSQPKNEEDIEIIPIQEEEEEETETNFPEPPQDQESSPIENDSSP
In words: flow cytometry on CHO cells expressing cyno CD20, one site-specific binding fit, mean of three. Here is the method:
as §1, §2

Assay [6] addresses T2, human CD20. The experiment in a line: flow cytometry on CHO cells expressing human CD20, one site-specific binding fit, mean of three. How it is done:
as §1, §2

The target of assay [7] is T4, cyno CD20. The experiment in a line: cyno Kd divided by human Kd, cell-based affinity on CHO cells. Here is the method: as §1, §2
The target in assay [8] is T3, cyno CD22. The description is as above. How it is done: as §1, §2

B1: CD20 82-A3 CC × CD22 16-G4 CC × I2E × scFc (S5H) (bispecific antibody)
chain: EVQLVESGGGLVQPDRSLRLSCAASGFTFRDYAMHWVRQAPGKCLEWVSGIAWNSDSIGYADSVKGRFTISRDNAKNSLFLQMHSLRPEDTALYFCAKDTLYGSGSPRAFDIWGQGTMVTVSSGGGGSGGGGSGGGGSEIVLTQSPATLSVSPGERATLSCRASQSVNNNLAWYQQKPGQAPRLLIYGASTRATGIPARFSGSGSGTEFTLTISRLEPEDFAVYYCQQSNNWPITFGCGTRLEIKSGGGGSQVQLVQSGAEVKKPGASVKVSCKASGYTFTSYGISWVRQAPGQCLEWMGWISAYNGNTIYAQKFQGRVTLTRDTSTSTAYMELRSLRSDDTAMYYCARDPDYYGSGSYSDYWGQGTLVTVSSGGGGSGGGGSGGGGSEIVLTQSPATLSVSPGERATLSCRASQSVSSNLAWYQQKPGQAPRLLIYGASSRATGIPARFSGSGSGTEFTLTISSLQSEDFAVYYCQQYHSWPLLTFGCGTKVEIKSGGGGSEVQLVESGGGLVQPGGSLKLSCAASGFTFNKYAINWVRQAPGKGLEWVARIRSKYNNYATYYADAVKDRFTISRDDSKNTVYLQMNNLKTEDTAVYYCARAGNFGSSYISYWAYWGQGTLVTVSSGGGGSGGGGSGGGGSQTVVTQEPSLTVSPGGTVTIT[in this place about 80 residues]FGSGTKLTVLGGGG[in this place human IgG1 Fc with R292C N297G V302C (EU numbers)]GGGGSGGGGSGGGGSGGGGSGGGGSGGGGS[in this place human IgG1 Fc with R292C N297G V302C (EU numbers)]
notes: Single chain: anti-CD20 scFv, anti-CD22 scFv, anti-CD3 scFv (I2E), scFc
For B1, the “EC50, 48-hour FACS based cytotoxicity assay, Oci-Ly 1 CD20 k.o. #A5” value (from here on “EC50 … Oci-Ly 1 CD20 k.o. #A5”) in the assay with human CD22 [1] was found to be 0.00531 nM. Also, in the assay with human CD20 [2], the “EC50, 48-hour FACS based cytotoxicity assay, Oci-Ly 1 CD22 k.o. #A1” value (from here on “EC50 … Oci-Ly 1 CD22 k.o. #A1”) is 0.00345 nM. Moreover, the Kd with human CD22 [3] came to 0.32 nM; with cyno CD22 [4], 2.46 nM; with cyno CD20 [5], 1.74 nM; in the assay with human CD20 [6], 2.72 nM. For the same molecule, the “Affinity gap Kdcy/Kdhu CD20” value with cyno CD20 [7] amounted to 0.64. Besides, the “Affinity gap Kdcy/Kdhu CD22” value in the assay with cyno CD22 [8] stood at 7.69.

B2: CD20 82-A3 CC × CD22 17-F6 CC × I2E × scFc (W6V) (bispecific antibody)
chain: EVQLVESGGGLVQPDRSLRLSCAASGFTFRDYAMHWVRQAPGKCLEWVSGIAWNSDSIGYADSVKGRFTISRDNAKNSLFLQMHSLRPEDTALYFCAKDTLYGSGSPRAFDIWGQGTMVTVSSGGGGSGGGGSGGGGSEIVLTQSPATLSVSPGERATLSCRASQSVNNNLAWYQQKPGQAPRLLIYGASTRATGIPARFSGSGSGTEFTLTISRLEPEDFAVYYCQQSNNWPITFGCGTRLEIKSGGGGSQVQLVQSGAEVKKPGASVKVSCKASGYTFTTYGISWVRQAPGQCLEWMGWISPKNGVTTYAQKFQGRVTITADESTSTAYMELSRLTSDDTAMYYCARDPDYYGSGSYSDYWGQGTLVTVSSGGGGSGGGGSGGGGSEIVLTQSPATLSVSPGERATLSCRASQSVSSNLAWYQQKPGQAPRLLIYGASSRATGIPARFSGSGSGTEFTLTISSLQSEDFAVYYCQQYHSWPLLTFGCGTKVEIKSGGGGSEVQLVESGGGLVQPGGSLKLSCAASGFTFNKYAINWVRQAPGKGLEWVARIRSKYNNYATYYADAVKDRFTISRDDSKNTVYLQMNNLKTEDTAVYYCARAGNFGSSYISYWAYWGQGTLVTVSSGGGGSGGGGSGGGGSQTVVTQEPSLTVSPGGTVTIT[in this place about 80 residues]FGSGTKLTVLGGGG[in this place human IgG1 Fc with R292C N297G V302C (EU numbers)]GGGGSGGGGSGGGGSGGGGSGGGGSGGGGS[in this place human IgG1 Fc with R292C N297G V302C (EU numbers)]
notes: as for B1
Turning to B2, in the assay with human CD22 [1], the “EC50 … Oci-Ly 1 CD20 k.o. #A5” value was 0.00808 nM. The “EC50 … Oci-Ly 1 CD22 k.o. #A1” value in the assay with human CD20 [2] turned out to be 0.00032 nM. For the same molecule, the dissociation constant (Kd) in the assay with human CD22 [3] is 0.22 nM; with cyno CD22 [4], 3.65 nM; with cyno CD20 [5] it was 1.32 nM; with human CD20 [6] it was 2.21 nM. The “Affinity gap Kdcy/Kdhu CD20” value with cyno CD20 [7] is 0.6. Moreover, the “Affinity gap Kdcy/Kdhu CD22” value in the assay with cyno CD22 [8] worked out at 16.6.

B3: CD20 82-A3 CC × CD22 99-F10 CC × I2E × scFc (P6B) (bispecific antibody)
chain: EVQLVESGGGLVQPDRSLRLSCAASGFTFRDYAMHWVRQAPGKCLEWVSGIAWNSDSIGYADSVKGRFTISRDNAKNSLFLQMHSLRPEDTALYFCAKDTLYGSGSPRAFDIWGQGTMVTVSSGGGGSGGGGSGGGGSEIVLTQSPATLSVSPGERATLSCRASQSVNNNLAWYQQKPGQAPRLLIYGASTRATGIPARFSGSGSGTEFTLTISRLEPEDFAVYYCQQSNNWPITFGCGTRLEIKSGGGGSQVQLVESGGGVVQPGRSLRLSCAASGFTFSAYGMHWVRQAPGKCLEWVAVILYDGSNKYYADSVKGRFTISRDNSKNTLYLQMNSLRAEDTAVYYCARGSGWLQLGDYFDYWGQGTLVTVSSGGGGSGGGGSGGGGSQSALTQPPSVSGSPGQSITISCTGTSSDVGGYNYVSWYQQHPGKAPKLMIYEVSNRPSGVSNRFSGSKSGNTASLTISGLQAEDEADYYCSSYTSSSTLVFGCGTKLTVLSGGGGSEVQLVESGGGLVQPGGSLKLSCAASGFTFNKYAINWVRQAPGKGLEWVARIRSKYNNYATYYADAVKDRFTISRDDSKNTVYLQMNNLKTEDTAVYYCARAGNFGSSYISYWAYWGQGTLVTVSSGGGGSGGGGSGGGGSQTVVTQEPSLTVSPGGTVTIT[in this place about 80 residues]FGSGTKLTVLGGGG[in this place human IgG1 Fc with R292C N297G V302C (EU numbers)]GGGGSGGGGSGGGGSGGGGSGGGGSGGGGS[in this place human IgG1 Fc with R292C N297G V302C (EU numbers)]
notes: as for B1
For B3, the “EC50 … Oci-Ly 1 CD20 k.o. #A5” value with human CD22 [1] turned out to be 0.0401 nM. Besides, the “EC50 … Oci-Ly 1 CD22 k.o. #A1” value with human CD20 [2] came out at 0.00012 nM. Also, the equilibrium dissociation constant (Kd) in the assay with human CD22 [3] came to 567 nM; in the assay with cyno CD22 [4], 1150 nM; with cyno CD20 [5], 1.26 nM; with human CD20 [6], 1.62 nM. Besides, the “Affinity gap Kdcy/Kdhu CD20” value with cyno CD20 [7] was 0.78. In addition, in the assay with cyno CD22 [8], the “Affinity gap Kdcy/Kdhu CD22” value was found to be 2.03.
